Data as given in patent US10568324B2, “Agricultural and horticultural material, and plant cultivation method which promote coloring in fruit” (AJINOMOTO CO., INC., priority 2015, dated 2020).
At least one read-out could not be matched to a standard name with certainty.

test system: grape cultured cells (VR calluses); experiment: Anthocyanin content in grape calluses treated with various amino acids (Reference Example 1(1)); type: cell-based, Vitis vinifera L.; details: 5 mM amino acid in MS agar medium, 5 days; relative to positive control 100 μM ABA taken as 100%
Method: Cells derived from a European grape cell line (Vitis vinifera L.; RIKEN BioResource Center; VR, management number RPC00003) were subcultured on MS agar medium. The subcultured VR calluses (i.e. cell clusters) were each transferred to MS agar medium containing 5 mM of each amino acid solution, and cultured. As a positive control, 100 μM abscisic acid (ABA) was added, which is a known color-promotor. Five days after the transfer, each callus was freeze-dried and ground, and anthocyanin was extracted with a 1% HCl solution in MeOH.

Compound	Relative content of anthocyanin [%]
N[C@@H](CO)C(=O)O [Ser, serine]	38
N[C@@H](CCC(=O)O)C(=O)O [Glu, glutamic acid]	4
N[C@@H](Cc1ccccc1)C(=O)O [Phe, phenylalanine]	40
C[C@@H](O)[C@H](N)C(=O)O [Thr, threonine]	35
NC(=O)CC[C@H](N)C(=O)O [Gln, glutamine]	18
N[C@@H](CC(=O)O)C(=O)O [Asp, aspartic acid]	11
N[C@@H](Cc1c[nH]cn1)C(=O)O [His, histidine]	29
N[C@@H](CS)C(=O)O [Cys, cysteine]	6
CC(C)C[C@H](N)C(=O)O [Leu, leucine]	30
CC(C)[C@H](N)C(=O)O [Val, valine]	6
NC(=O)C[C@H](N)C(=O)O [Asn, asparagine]	38
CC[C@H](C)[C@H](N)C(=O)O [Ile, isoleucine]	76
